# Measured values from PubChem BioAssay AID1240 (Sanford-Burnham Center for Chemical Genomics, 2008).
# Out of some 50,000 compounds screened, about 800 (1.6%) showed an effect of 50% or more. The list shows a part of the results.
# Target: Bcl-2-like protein 10 (Homo sapiens) (UniProt Q9HD36)
# Test: TR3 peptide-Bcl-B binding displacers, biochemical primary FP assay, phenotype converters (AID 1240);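 further: 0% = Bcl-B with tracer peptide and DMSO and 100% = tracer peptide lacking Bcl-B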
# Conditions: GST-Bcl-B / FITC-TR3 peptide fluorescence polarization; stronger effect = higher value; compound at 3.75 mg/L
# Chain of UniProt Q9HD36 (Q9HD36 whole entry, looked up): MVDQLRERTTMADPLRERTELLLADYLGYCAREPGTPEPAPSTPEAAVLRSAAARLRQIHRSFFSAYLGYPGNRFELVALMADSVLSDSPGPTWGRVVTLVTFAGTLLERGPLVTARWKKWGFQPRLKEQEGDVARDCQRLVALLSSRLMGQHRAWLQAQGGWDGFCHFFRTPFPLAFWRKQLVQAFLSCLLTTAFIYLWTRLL
row,Compound,displacement [%]
1,COc1cccc(C2CN(c3ccccc3)N=C2c2cccs2)c1OC (stereo not given),14.8
2,Cc1onc(-c2c(Cl)cccc2Cl)c1C(=O)Nc1ccc2ccccc2c1,-3
3,O=C1NC(=O)c2ccc3c4c(ccc1c24)CC3,55.5
4,CCOC(=O)N1CCN(C(=O)Nc2ccc3nc4c5ccccc5c5ccccc5c4nc3c2)CC1,22.4
5,C#CCN1C(=O)C(=O)c2cc(Br)ccc21,5.4
6,CCOC(=O)C1=C(C)NC2=C(C(=O)CCC2)C1c1cc2c(cc1Cl)OCO2 (stereo not given),1.7
7,CC(C)Oc1ccc(Cc2cnc(N)nc2N)cc1,-7.1
8,Brc1cc(/C=N/Nc2ccccn2)oc1Br,6.8
9,CC1=CC(C)C2COC(c3ccc4c(c3)OCO4)C1C2C (stereo not given),17.7
10,O=c1c2c(nc3cc(-c4ccco4)[nH]n13)CCS2,78.9
11,Cc1cc(C)n(-c2ncnc3sc(C)c(C)c23)n1,0.1
12,O=[N+]([O-])c1ccc(N2CCN(S(=O)(=O)c3ccc4ccccc4c3)CC2)cc1N1CCCC1,6.4
13,CCOC(=O)C1=C(O)/C(=C/c2cccc(OC)c2O)N=C1C,38
14,CCOC(=O)c1c(NC(=O)c2ccc(-c3ccc([N+](=O)[O-])cc3)o2)sc2c1CCCC2,-14.6
15,Nc1nc(-c2ccccc2)c(C(=O)c2ccccc2)s1,1
16,Cc1ccc(S(=O)(=O)NC(Cc2ccccc2)C(=O)Nc2nccs2)cc1 (stereo not given),4.7
17,Cn1nc(-c2ccc(Br)cc2)cc1N,16.6
18,COc1ccc(/C=C2\SC(=S)N(c3ccc(F)cc3)C2=O)cc1OC,105
19,COc1cccc(/C=N/N2CCN(Cc3ccc(Cl)cc3)CC2)c1,11.9
20,Cc1cccc(/C(N)=N/OC(=O)COc2ccc(Cl)cc2)c1,3.2
21,c1ccc(Cn2c(-c3ccco3)nc3ccccc32)cc1,13.6
22,O=C(CSc1nc2ccccc2n1Cc1ccccc1)N/N=C/c1ccccc1Br,-8.8

row,Compound,displacement [%]
1,O=C(N/N=C/c1cccc(Br)c1)c1cnccn1,-7.5
2,Cc1oc2c(cc(O)c3ccccc32)c1C(=O)c1ccc(Cl)cc1,3
3,O=C(O)c1ccccc1C(=O)c1ccc(Cl)c(N2C(=O)c3ccccc3C2=O)c1,13.2
4,CCOC(=O)CC(NC(C)=O)c1ccc([N+](=O)[O-])cc1 (stereo not given),3.3
5,O=C(O)c1cccc2c1NC(c1cccc3ccccc13)C1CC=CC21 (stereo not given),25.1
6,O=C1c2c(Cl)ccc(Cl)c2C(=O)N1c1ccccc1O,9.8
7,COC(=O)c1cc(NC(=O)/C=C/c2ccc(Cl)cc2Cl)cc(C(=O)OC)c1,-3.3
8,CC12CC3CC(C)(C1)CC(C(=O)CCC(=O)O)(C3)C2,-11.6
9,O=C(/C=C/c1ccco1)Nc1ccc(C(=O)Nc2nccs2)cc1,-61.5
10,COc1cccc(CN2CCN(S(C)(=O)=O)CC2)c1,14.3
11,O=C(COc1ccccc1[N+](=O)[O-])N/N=C/c1cccc(OC(=O)c2ccc3c(c2)OCO3)c1,6.3
12,CC(C)c1nnc(NC(=O)c2ccccc2)s1,3.9
13,CC1=C(C(=O)OCCOc2ccccc2)C(c2coc3ccc(C)cc3c2=O)C2=C(CCCC2=O)N1 (stereo not given),12.4
14,CC(C)C(=O)Nc1ccc(Nc2ccccc2)cc1,10.1
15,CC1(C)c2ssc(=S)c2-c2ccccc2N1C(=O)c1ccccc1,1.3
16,COc1cc(C(=O)Nc2cc(Cl)ccc2C)cc(OC)c1OC,-7.3
17,CC1=C(C(=O)Nc2ccc(C)cc2)C(c2ccccc2)NC(=S)N1 (stereo not given),8.6
18,COC(=O)CCC(=O)Nc1ccc(C)cc1C,4.9
19,O=C1c2ccccc2C(=O)N1CCCc1nc2ccccc2c(=O)n1-c1cccnc1,-6.1
20,O=C(Nc1ccc(NS(=O)(=O)c2cccc(S(=O)(=O)c3ccccc3)c2)cc1)c1ccccc1,-8.7
21,CCOC(=O)c1ccccc1NC(=O)c1sc(NC(=O)Cc2ccc(OC)cc2)c(C(=O)OCC)c1C,5.4
22,O=S(=O)(CCc1nnc(-c2ccccc2)o1)c1ccc2ccccc2c1,7.3

row,Compound,displacement [%]
1,NC1=NC(=O)C(Cc2cc(Cl)ccc2Cl)S1 (stereo not given),5.2
2,COC(=O)c1c(C)oc2ccc(NS(=O)(=O)c3ccc4ccccc4c3)cc12,22.7
3,C=CCOc1ccc(C2C3=C(CC(C)(C)CC3=O)OC3=C2C(=O)CC(C)(C)C3)cc1OCC,-1.4
4,Nc1nonc1N/N=C/c1ccc2nsnc2c1,2.5
5,Brc1ccc(C=NN2CCN(Cc3ccccc3)CC2)cc1,-17.6
6,O=C(CSc1nc2ccccc2c(=O)n1-c1ccccc1)Nc1ccccc1,9
7,Cc1cccc(NC(=O)/C=C/c2cccc([N+](=O)[O-])c2)n1,15.9
8,CCSc1sc(CC)cc1C(=O)O,15.4
9,COC(=O)c1c(-c2ccccc2Cl)csc1NC(=O)C1C2CCC(C2)C1C(=O)O (stereo not given),-8.2
10,CCCCNCCCCCOc1c(C)cccc1C,6.3
11,Cc1ccc(S(=O)(=O)NC(=O)OC(c2ccccc2)C(F)(F)F)cc1 (stereo not given),8.8
12,CCOc1ccccc1N1CCN(C(=O)c2sc3ccccc3c2Cl)CC1,-4.9
13,C=C(C)CNC(=S)Nc1sc2c(c1C(=O)OCC)CC(C)(C)OC2,-2.7
14,Cc1sc2nc(-c3ccc(N(C)C)c(Br)c3)[nH]c(=O)c2c1C,-11.6
15,C(=N\N1CCN(c2ccccn2)CC1)/c1ccc2c(c1)OCO2,-9.5
16,CCCOc1ccc(N2C(=O)CC(NCCNc3ccc([N+](=O)[O-])cn3)C2=O)cc1 (stereo not given),-1.7
17,CCN(CC)CCCCOc1ccc(Cl)cc1C,-7.4
18,C/C(O)=C(\C(=S)NC(=O)c1ccccc1)C(N)=NC(=O)c1ccccc1,14.9
19,COc1cccc(OC)c1C(=O)NCC12CC3CC(C1)CC(CNC(=O)c1c(OC)cccc1OC)(C3)C2,9.6
20,CCN(CC)c1ccc(NC(=O)c2ccc(Br)cc2)cc1,9.2
21,CC(C)(C)C1=CC(=O)C=C(C(C)(C)C)C1=O,2.3
22,COc1ccc(NC(=O)CN(c2ccc(C)c(Cl)c2)S(C)(=O)=O)cc1,3.4

row,Compound,displacement [%]
1,COC(=O)/C(=C/c1c[nH]c2ccccc12)N=Cc1ccccc1,15.4
2,CCn1c2ccccc2c2nnc(SCC(N)=O)nc21,-0.2
3,O=C(O)CSCCCN1C(=O)c2cccc3cccc(c23)C1=O,8
4,COc1cc([N+](=O)[O-])ccc1NC(=O)c1ccccc1,14
5,COc1ccc(C2CC(C(F)(F)F)n3nc(C(=O)NCCN4CCOCC4)cc3N2)cc1 (stereo not given),-1.2
6,COc1ccc(/C=C/C(=O)Nc2ccc3c(c2)oc2ccccc23)cc1,0.5
7,O=C(COc1ccccc1)NNc1c2ccccc2nc2ccccc12,-3.6
8,CCN(CC)c1ccc(/C=C2\SC(=S)N(CCc3ccccc3)C2=O)cc1,86
9,COc1ccc(NC(=O)CSc2nc3ccc(NC(=O)c4ccccc4)cc3s2)cc1,22.7
10,C=CCNC(=O)COc1ccc(Br)cc1,4.7
11,CCOc1ccc(NC(=O)c2ccccc2NC(=O)c2ccccc2Cl)cc1,13.8
12,O=C(COc1ccc2ccccc2c1)Nc1ccc(Cl)c(Cl)c1,-1.7
13,Cc1cccc(OCC(=O)N/N=C/c2cc(Br)cc(I)c2O)c1,4.9
14,CCC/C(O)=C1\C(=O)CC(C)(C)CC1=Nc1ccccc1C,3.7
15,Cc1occc1C(=O)Nc1ccccc1C(=O)O,-0.6
16,Cn1cc(C(=O)N/N=C/c2ccc(Br)cc2)ccc1=O,-4.2
17,COc1ccc(C2CC(=O)C3=C(C2)Nc2ccccc2NC3c2coc3ccc(C)cc3c2=O)cc1 (stereo not given),7.6
18,CC1=C(C(=O)OC2CCCCCC2)C(c2ccccc2)NC(=O)N1 (stereo not given),-7.2
19,Clc1ccc(Nc2nc(-c3cccs3)cs2)cc1,-1.2
20,COc1ccc(C(=O)Nc2ccc(C)c(Cl)c2)cc1OC,13.5
21,COc1ccc(Cc2nc3ccccc3n2CC(=O)NN)cc1OC,-10.3
22,NC(=O)NC(c1ccc(Cl)cc1)c1ccccc1Cl (stereo not given),-10.8

row,Compound,displacement [%]
1,CCOc1ccc(N=Cc2ccc(OC(C)C)c(OC)c2)cc1,4.4
2,CCC1CCc2c(sc3nc(SCC(=O)NCCc4ccccc4)n(-c4ccccc4)c(=O)c23)C1 (stereo not given),0
3,CCc1c(C)sc(NC(=O)c2ccc(Cl)cc2)c1C(N)=O,26.1
4,CCOc1ccc(-c2cc(C(=O)NC3CCCC3)c3ccccc3n2)cc1,-12.3
5,COc1ccccc1N1CCN(/N=C/c2ccc(-c3ccccc3)cc2)CC1,-8.7
6,O=C(c1ccccc1F)N1CCN(c2ccc([N+](=O)[O-])c(NC3CC3)c2)CC1,6.1
7,Cc1ccc(CN2CCN(/N=C/c3ccccc3C)CC2)cc1,11.6
8,CCn1c2ccccc2c2cc(CN3CCN(Cc4ccccc4OC)CC3)ccc21,1.8
9,COc1ccc2c(Cl)c(C(=O)Nc3ccc(Cl)cc3)sc2c1,2.4
10,CC1=NN(c2ccccc2)C(=O)/C1=C/c1ccc(OC2CSC2)cc1,1.4
11,O=[N+]([O-])c1ccc(N2CCN(S(=O)(=O)c3ccc(F)cc3)CC2)cc1,11.9
12,CCCC(=O)Nc1ccc2c(c1)Cc1ccccc1-2,-1.1
13,Cc1ccc(-c2nc3ccccc3o2)cc1NC(=O)c1cc(Cl)ccc1Cl,6.4
14,CC(=O)N1CCN(c2ccc(NC(=O)c3cc(I)ccc3Cl)cc2)CC1,13.4
15,COc1ccc(C2CC(=O)NC(SCC(=O)Nc3ccc(Br)cc3)=C2C#N)cc1OCc1ccccc1 (stereo not given),2.5
16,COc1cc(C(=O)NC(NC(=S)Nc2cccc(Br)c2)C(Cl)(Cl)Cl)cc(OC)c1OC (stereo not given),-16.6
17,O=C1/C(=C\c2ccc(OS(=O)(=O)c3ccccc3[N+](=O)[O-])cc2)SC(=S)N1c1ccccc1,-3.6
18,CCOC(=O)C1=C(C)N=c2s/c(=C\c3ccc(O)c(OC)c3)c(=O)n2C1c1ccc(OC)cc1 (stereo not given),4.2
19,Cc1ccc(C(=O)Nc2c(C)ccc3nsnc23)cc1,0.3
20,COc1ccc(CN2CCN(C3CCN(Cc4ccccc4)CC3)CC2)cc1Br,-9.1
21,O=C1c2cc(Cl)c(Cl)cc2C(=O)N1c1cccc(O)c1,2.7
22,Cc1ccc(/C(O)=C2/C(=O)C(=O)N(CCCn3ccnc3)C2c2ccccc2)cc1 (stereo not given),7.9
